Data from a compilation of properties of binary mixtures (doi:10.1007/s10953-008-9306-y).
Some of these densities may be calculated back from excess volumes.

Assay: xn = mol fraction of the nth substance listed
Settings: 298.15 K, 101.3 kPa

## CCOS(=O)(=O)[O-].CC[n+]1ccn(C)c1 + CCCCCCCCCO
x2 = 0
  mass density: 1238 kg/m3

## CCOS(=O)(=O)[O-].CC[n+]1ccn(C)c1 + CCCCCCCCO
x2 = 0
  mass density: 1238 kg/m3
x2 = 0.2529
  mass density: 1147.2 kg/m3
x2 = 0.4759
  mass density: 1056.9 kg/m3
x2 = 0.6459
  mass density: 984.3 kg/m3
x2 = 0.748
  mass density: 940.1 kg/m3

## CCCCCCO + CCOS(=O)(=O)[O-].CC[n+]1ccn(C)c1
x1 = 1
  mass density: 815 kg/m3

## CCOS(=O)(=O)[O-].CC[n+]1ccn(C)c1 + CCCCCCO
x2 = 0
  mass density: 1238 kg/m3
x2 = 0.1386
  mass density: 1198.2 kg/m3
x2 = 0.2602
  mass density: 1158.8 kg/m3
x2 = 0.33
  mass density: 1135.3 kg/m3
x2 = 0.3963
  mass density: 1111.8 kg/m3
x2 = 0.5823
  mass density: 1035.1 kg/m3
x2 = 0.6807
  mass density: 990.1 kg/m3
x2 = 0.7586
  mass density: 951.9 kg/m3
x2 = 0.8466
  mass density: 905.6 kg/m3
x2 = 0.92
  mass density: 870.6 kg/m3
x2 = 0.9678
  mass density: 835.4 kg/m3

## CCCO + CCOS(=O)(=O)[O-].CC[n+]1ccn(C)c1
x1 = 1
  mass density: 799.5 kg/m3

## CCOS(=O)(=O)[O-].CC[n+]1ccn(C)c1 + CCCO
x2 = 0
  mass density: 1236.9 kg/m3
x2 = 0.019
  mass density: 1233.9 kg/m3
x2 = 0.1203
  mass density: 1215.7 kg/m3
x2 = 0.2803
  mass density: 1181.1 kg/m3
x2 = 0.373
  mass density: 1156.9 kg/m3
x2 = 0.4597
  mass density: 1130.5 kg/m3
x2 = 0.6043
  mass density: 1076.3 kg/m3
x2 = 0.6802
  mass density: 1041 kg/m3
x2 = 0.7586
  mass density: 998.2 kg/m3
x2 = 0.8948
  mass density: 902.8 kg/m3
x2 = 0.9595
  mass density: 843.5 kg/m3

## CCCCCCCCCO + CCOS(=O)(=O)[O-].CC[n+]1ccn(C)c1
x1 = 0.1763
  mass density: 1180.9 kg/m3
x1 = 0.4982
  mass density: 1061.5 kg/m3
x1 = 0.7088
  mass density: 970.6 kg/m3
x1 = 0.9435
  mass density: 855.2 kg/m3
x1 = 1
  mass density: 824.2 kg/m3

## CCOS(=O)(=O)[O-].CC[n+]1ccn(C)c1 + CCCCCO
x2 = 0
  mass density: 1238 kg/m3
x2 = 0.1561
  mass density: 1198 kg/m3
x2 = 0.2862
  mass density: 1160 kg/m3
x2 = 0.4099
  mass density: 1118 kg/m3
x2 = 0.5411
  mass density: 1066 kg/m3
x2 = 0.6432
  mass density: 1029 kg/m3
x2 = 0.7205
  mass density: 984 kg/m3
x2 = 0.78
  mass density: 950 kg/m3
x2 = 0.8435
  mass density: 916 kg/m3
x2 = 0.936
  mass density: 857 kg/m3
x2 = 0.98
  mass density: 833 kg/m3

## CCCCCCCCCCO + CCOS(=O)(=O)[O-].CC[n+]1ccn(C)c1
x1 = 1
  mass density: 826 kg/m3

## CCCCCO + CCOS(=O)(=O)[O-].CC[n+]1ccn(C)c1
x1 = 1
  mass density: 813 kg/m3

## CCOS(=O)(=O)[O-].CC[n+]1ccn(C)c1 + CCCCCCCCCCO
x2 = 0
  mass density: 1238 kg/m3
x2 = 0.1568
  mass density: 1171.5 kg/m3
x2 = 0.2555
  mass density: 1129.8 kg/m3
x2 = 0.3654
  mass density: 1084.2 kg/m3
x2 = 0.5215
  mass density: 1019.8 kg/m3
x2 = 0.7774
  mass density: 915.7 kg/m3
x2 = 0.8874
  mass density: 871.2 kg/m3
x2 = 0.9542
  mass density: 844.4 kg/m3

## CCCCO + CCOS(=O)(=O)[O-].CC[n+]1ccn(C)c1
x1 = 1
  mass density: 805.7 kg/m3

## CCOS(=O)(=O)[O-].CC[n+]1ccn(C)c1 + CCCCCCCO
x2 = 0
  mass density: 1238 kg/m3
x2 = 0.029
  mass density: 1229.1 kg/m3
x2 = 0.0813
  mass density: 1213.1 kg/m3
x2 = 0.2898
  mass density: 1140 kg/m3
x2 = 0.5831
  mass density: 1022.6 kg/m3
x2 = 0.696
  mass density: 972.3 kg/m3
x2 = 0.8236
  mass density: 911.8 kg/m3
x2 = 0.9012
  mass density: 872.1 kg/m3
x2 = 0.9579
  mass density: 843.1 kg/m3

## CCCCCCCCO + CCOS(=O)(=O)[O-].CC[n+]1ccn(C)c1
x1 = 1
  mass density: 821.7 kg/m3

## CCOS(=O)(=O)[O-].CC[n+]1ccn(C)c1 + CCCCO
x2 = 0
  mass density: 1236.9 kg/m3
x2 = 0.0734
  mass density: 1221.7 kg/m3
x2 = 0.1247
  mass density: 1210.4 kg/m3
x2 = 0.1579
  mass density: 1202.6 kg/m3
x2 = 0.1874
  mass density: 1195.4 kg/m3
x2 = 0.2539
  mass density: 1178.1 kg/m3
x2 = 0.3116
  mass density: 1161.7 kg/m3
x2 = 0.4114
  mass density: 1130.2 kg/m3
x2 = 0.5145
  mass density: 1092.9 kg/m3
x2 = 0.5936
  mass density: 1060.4 kg/m3
x2 = 0.6716
  mass density: 1024.4 kg/m3
x2 = 0.7746
  mass density: 969.3 kg/m3
x2 = 0.8577
  mass density: 917.2 kg/m3
x2 = 0.9019
  mass density: 885.9 kg/m3
x2 = 0.9613
  mass density: 839.4 kg/m3
